Data as given in PubChem BioAssay AID651820 (National Center for Advancing Translational Sciences (NCATS), 2012).
Hit rate of the full screen: of about 340,000 compounds, about 12,000 (3.5%) were called active. Inconclusive results, whose numbers are uncertain, are shown with a selection of clear calls. Calls follow the shape of the dose curve; as a rule, active = well fitted inhibition curve with a large enough effect; inconclusive = small, poorly fitted or top-dose-only effect, or another doubt; inactive = no such curve, though single readings can be large or run the other way. No potency is given beside an inconclusive call; the fits are too rough.

assay: qHTS Assay for Inhibitors of Hepatitis C Virus (HCV); settings: Huh7.5.1 HCVcc-Cre (HCVcc is cell-culture hepatitis C virus) infection, luciferase reporter, 44 h; activity change, negative = inhibition: at 41.8 µM (top of the series) unless noted
In short: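 Cells seeded at 1,000/well and cultured 4 h, then compounds added followed by HCVcc-Cre virus (~0.5 moi). After 44 h further culture, luciferase substrate was added, plates held 15 min at room temperature, and luminescence read for 15 sec.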
% is scaled to controls: 0 for no effect and ±100 for the full control effect; potency is read from the fitted curve at half-maximal effect; tags tell the direction and shape of the fitted curve.

Structure (SMILES) | activity change, negative = inhibition | Potency
CCN(CC)C(=O)Oc1c(Cl)cc(Cl)c2cccnc12 | inactive: -7.35% | –
CCCC(=O)Nc1cc(S(=O)(=O)N2CCCCC2)ccc1N1CCOCC1 | – | inconclusive [inhibitor, single point]
COc1ccc(-c2csc(-c3ccc(C(=O)O)cc3)n2)cc1 | inactive: 25.2% | –
COc1ccc(C2=NN(C(=O)c3ccc(Cl)c([N+](=O)[O-])c3)C(c3ccccc3)C2)cc1 (stereo unspecified) | – | inconclusive [inhibitor, single point]
O=C(CN(c1cccc(Br)c1)S(=O)(=O)c1ccccc1)N/N=C/c1cc([N+](=O)[O-])ccc1O | – | inconclusive [inhibitor, single point]
COC(=O)c1ccccc1NC(=O)NCc1ccncc1 | inactive: 0.966% | –
COc1cc(OC)cc(C(=O)NNC(=O)CN2C(=O)NC(C)(c3ccc(C)cc3)C2=O)c1 (stereo unspecified) | inactive: -4.33% [at 8.37 µM] | –
COc1cccc(C(=O)NNC(=O)c2ccc3ccccc3c2)c1 | inactive: 0.562% | –
Cc1cc(NC(=O)Nc2ccccc2)n(C(C)(C)C)n1 | inactive: 4.62% | –
COc1ccc(S(=O)(=O)N2CCOC23CCN(C(=O)c2ccccc2OC)CC3)cc1 | inactive: 17.3% | –
COC(=O)NC(NC(=S)Nc1ccc([N+](=O)[O-])cc1)C(Cl)(Cl)Cl (stereo unspecified) | – | inconclusive [inhibitor, single point]
Cc1nc2ccccc2cc1C(=O)NCc1ccc(F)cc1 | – | inconclusive [inhibitor, partial curve, poor fit]
O=C(C1CCN(c2ccc(N3CCOCC3)nn2)CC1)N1CCN(c2ccc(F)cc2)CC1 | – | inconclusive [inhibitor, single point]
CCCN(CC(=O)Nc1ccc(F)c(F)c1F)CC(=O)Nc1c(Cl)cccc1Cl | – | inconclusive [inhibitor, partial curve]
CC(C)Oc1ccc(NC(=O)c2ccncc2)cc1 | – | inconclusive [inhibitor, single point]
Cn1c(=NC(=O)COc2ccccc2)sc2cccc(F)c21 | – | inconclusive [inhibitor, partial curve]
CCOc1ccccc1Nc1ncnc2ccc(Br)cc12 | – | active: 22.4 µM
CCOC(=O)N1CCC(N2Cc3cccc(C(=O)NCc4ccc(OC)cc4)c3C2=O)CC1 | inactive: 8.23% [at 0.335 µM] | –
CC(=O)c1ccc(-c2ccc(C(=O)NC3CC(C)(C)NC(C)(C)C3)o2)cc1 | – | inconclusive [inhibitor, single point]
CCN(CC)c1ccc(S(=O)(=O)N2CCOCC2)cc1NC(=O)COC(=O)/C=C/c1ccc(O)c(OC)c1 | – | inconclusive [inhibitor, single point]
S=C(NC1CCCCC1)N1CCN(Cc2ccccc2Cl)CC1 | – | inconclusive [inhibitor, single point]
Cc1c(C(=O)OC2CCCC2C)[nH]c2c1C(=O)CCC2 (stereo unspecified) | – | inconclusive [inhibitor, single point]
Cc1ccc(C(=O)NC(=S)Nc2ccccc2C(F)(F)F)cc1 | – | inconclusive [inhibitor, single point]
CC(=O)c1ccc(S(=O)(=O)NCCCC(=O)N(C)Cc2ccc3c(c2)OCO3)cc1 | inactive: 1.56% | –

Structure (SMILES) | activity change, negative = inhibition | Potency
Cc1ccc2c(CN(C)Cc3cccc(F)c3)cc(=O)oc2c1C | – | inconclusive [inhibitor, single point]
COc1ccc(-n2ncc(S(=O)(=O)c3ccccc3)c2-c2ccc(Cl)cc2)cc1 | – | active: 10 µM
COc1ccc(NC(=O)CSc2nnnn2-c2ccccc2OC)c(OC)c1 | – | inconclusive [inhibitor, single point]
COc1cccc(CN(C)C(=O)c2cccc(OC3CCN(C4CCCC4)CC3)c2)c1 | – | inconclusive [inhibitor, single point]
CC(C)CCCC(C)NC(=O)c1cc(S(=O)(=O)N2CCCCC2)ccc1N1CCOCC1 (stereo unspecified) | – | active: 11.2 µM
COC(=O)c1ccc(NC(=O)COc2ccc(N(C)S(=O)(=O)c3ccc(C)cc3)cc2)cc1 | inactive: -27.9% | –
O=C(Nc1ccc2oc(=O)ccc2c1)c1cc2ccccc2o1 | – | inconclusive [inhibitor, single point]
O=C(CCN1C(=O)/C(=C/c2ccccc2)SC1=S)N1CCCCCC1 | – | inconclusive [inhibitor, single point]
O=C(Nc1ccc(Cn2cccn2)cc1)c1ccc(COc2ccccc2Br)cc1 | – | active: 12.6 µM
COc1ccc(Nc2nc(-c3ccccc3)nc3ccccc23)c(OC)c1 | – | active: 2 µM
O=C(CSc1nnc(CNC(=O)C23CC4CC(CC(C4)C2)C3)n1-c1ccc(F)cc1)Nc1ccc(F)cc1 | – | inconclusive [inhibitor, partial curve, poor fit]
Oc1ccc(-c2onc(C(F)(F)F)c2-c2cscn2)c(O)c1 | – | inconclusive [inhibitor, partial curve, poor fit]
CCOc1ccccc1NC(=O)c1ccc(C(=O)Nc2ccccc2OCC)nc1 | inactive: -3.68% | –
COc1ccc(C2=C/C(=C\c3ccccc3OC(C)=O)C(=O)O2)cc1 | inactive: -2.68% | –
O=C(N/N=C/C(Br)=C/c1ccccc1)C(O)c1ccccc1 (stereo unspecified) | – | inconclusive [inhibitor, partial curve]
Cc1nn(-c2nc(-c3ccco3)cc(C(F)(F)F)n2)c(C)c1Cl | – | inconclusive [inhibitor, single point]
O=C(NC1CCCC1)c1ccc(CS(=O)Cc2ccccc2Cl)o1 (stereo unspecified) | inactive: -21.8% | –
O/N=C/c1cn(-c2ccccc2)nc1-c1ccccc1 | – | inconclusive [inhibitor, single point]
COc1ccc(C2=NN(S(=O)(=O)c3ccccc3)C(c3ccccc3)C2)cc1 (stereo unspecified) | – | inconclusive [inhibitor, single point]
COc1ccc(NC(=O)CCSc2ccc(C)cc2)cc1S(=O)(=O)Nc1ccccc1Cl | – | inconclusive [inhibitor, single point]
Cc1cc2nn(-c3ccccc3)nc2cc1NC(=O)c1cccs1 | – | inconclusive [inhibitor, single point]
Nc1nc(N)c2cc([N+](=O)[O-])ccc2n1 | – | inconclusive [inhibitor, partial curve]
CC1(C(=O)N/N=C/c2c(F)c(F)c(F)c(F)c2F)CC1(Cl)Cl (stereo unspecified) | – | active: 11.2 µM
COc1cc(O)c2c(c1)COC2=O | inactive: 6.11% | –

Structure (SMILES) | activity change, negative = inhibition | Potency
Cc1cccc(C)c1NC(=O)CCS(=O)(=O)c1ccc(Br)cc1 | inactive: 4.59% | –
COC1C(O)C(C)OC(OC2C(Oc3cccc4c(O)c5c(=O)oc6ccc(C)c7c(=O)oc(c34)c5c67)OC(C)C(O)C2O)C1O (stereo unspecified) | – | inconclusive [inhibitor, partial curve]
COc1ccc(/C=N\NC(=O)c2ccccc2OC)cc1COc1c(F)c(F)c(F)c(F)c1F | – | inconclusive [inhibitor, full curve]
Cc1ccc(C(=O)CC2(O)C(=O)N(Cc3ccccc3)c3ccccc32)o1 (stereo unspecified) | inactive: -9.34% | –
O=C(C1CCN(Cc2ccccc2)CC1)N1CCN(C/C=C/c2ccccc2)CC1 | – | inconclusive [inhibitor, single point]
CC1CN(C(=O)c2cccc(COc3ccc(Br)cc3)c2)CC(C)O1 (stereo unspecified) | – | inconclusive [inhibitor, single point]
O=C(O)c1sccc1S(=O)(=O)N1CCOCC1 | inactive: -3.44% | –
CCOc1ccc(NC(=S)NCc2ccc3c(c2)OCO3)cc1 | inactive: 0.933% | –
CCN(C(=O)CSc1nc2cc(S(=O)(=O)N(CC)CC)ccc2o1)C1CCS(=O)(=O)C1 (stereo unspecified) | – | inconclusive [inhibitor, single point]
CCOc1ccc(N=C2Sc3nc4ccc(C)cc4cc3CN2CCOC)cc1 | – | inconclusive [inhibitor, single point]
CCOc1ccc(NC(=O)N2CCC(n3nnc4ccccc43)CC2)cc1 | inactive: -12.3% | –
COc1ccc(C)cc1NC(=O)Nc1cccc(C)c1 | – | inconclusive [inhibitor, partial curve]
O=C(CC1CCC1)Nc1cccc2c([N+](=O)[O-])cccc12 | inactive: -23.2% | –
CC(=O)Nc1ccc(N/C(N)=N/c2nc(C)cc(C)n2)cc1 | inactive: -7.38% | –
Cc1cnn(-c2nc(-c3cccs3)cc(C(F)(F)F)n2)c1 | – | active: 10 µM
COc1ccc(SCC(=O)c2cc(C)c(OC(=S)N(C)C)c(C)c2)cc1 | – | inconclusive [inhibitor, partial curve]
CCOC(=O)/C(C(N)=NCc1ccco1)=C(/O)c1ccccc1 | – | inconclusive [inhibitor, partial curve]
Cc1ccc(C)c(NC(=O)CSc2ccc(-c3cccs3)nn2)c1 | – | inconclusive [inhibitor, full curve, poor fit]
CCCCn1c(N)c(N(CCOC)C(=O)CCCc2cccs2)c(=O)[nH]c1=O | inactive: -5.35% | –
Clc1ccc(-c2nc(NCCN3CCOCC3)c3ccccc3n2)cc1 | – | inconclusive [inhibitor, single point]
O=C(CCNS(=O)(=O)c1ccc(OC(F)(F)F)cc1)N1CCN(C/C=C/c2ccccc2)CC1 | – | inconclusive [inhibitor, partial curve]
c1ccc(Cn2c(CN3CCCC3)nc3ccccc32)cc1 | inactive: 14% | –
Cn1c(CN2CCOCC2)nc2cc(NC(=O)COc3ccccc3)ccc21 | – | inconclusive [inhibitor, single point]
